The values below come from a collection of fitness landscapes (doi:10.1126/science.1257360).

The list shows a part of the results.

To fix the notation:
B1: PhoQ; a variant is named by its letters at X, in order, P23837 (parent)
chain: MKKLLRLFFPLSLRVRFLLATAAVVLVLSLAYGMVALIGYSVSFDKTTFRLLRGESNLFYTLAKWENNKLHVELPENIDKQSPTMTLIYDENGQLLWAQRDVPWLMKMIQPDWLKSNGFHEIEADVNDTSLLLSGDHSIQQQLQEVREDDDDAEMTHSVAVNVYPATSRMPKLTIVVVDTIPVELKSSYMVWSWFIYVLSANLLLVIPLLWVAAWWSLRPIEALAKEVRELEEHNRELLNPATTRELTSLVRNLNRLLKSERERYDKYRTTLTDLTHSLKTPLXXLQXXLRSLRSEKMSVSDAEPVMLEQISRISQQIGYYLHRASMRGGTLLSRELHPVAPLLDNLTSALNKVYQRKGVNISLDISPEISFVGEQNDFVEVMGNVLDNACKYCLEFVEISARQTDEHLYIVVEDDGPGIPLSKREVIFDRGQRVDTLRPGQGVGLAVAREITEQYEGKIVAGESMLGGARMEVIFGRQHSAPKDE

Variants of B1 are the subject of this experiment. The experiment in a line: enrichment ratio after two sorts for PhoP signalling (ratio (wild type AVST 3.29)); higher = more functional. The conditions noted are these: with PhoP (E. coli).
Consider SVCQ, for which the enrichment ratio was found to be 10.8. On to LTCS, for which the enrichment ratio was at most 0.25. To TKRQ belongs at most 0.25. Under CYLP stands at most 0.25; under EAWD, at most 0.25; under YDDG, at most 0.25.

With FTMD, the enrichment ratio was at most 0.25. Under KSYV stands at most 0.25; under RFCP, at most 0.25; under SEYW, at most 0.25. To YTDL belongs at most 0.25; to KLKV, at most 0.25. To MKIT belongs at most 0.25; to ARSW, at most 0.25; to SWQY, at most 0.25. As for IQFQ, the enrichment ratio is at most 0.25. With PKPR, the enrichment ratio was at most 0.25. To EYCS belongs at most 0.25; to FHPG, at most 0.25. To YRNS belongs at most 0.25; to ENST, at most 0.25; to GECG, at most 0.25. To ASFT belongs 1.36; to YYLA, at most 0.25. Take KQGM: the enrichment ratio is at most 0.25. On to HMNW, for which the enrichment ratio was at most 0.25. To KKLC belongs at most 0.25; to MLWH, at most 0.25. To FGQC belongs at most 0.25. To VNGP belongs at most 0.25; to LIIL, at most 0.25; to VPIR, at most 0.25. Turning to FGMT, the enrichment ratio was at most 0.25.

NDTF: the enrichment ratio was at most 0.25.

PQVR: the enrichment ratio was at most 0.25. As for PCMR, the enrichment ratio is at most 0.25. Under AHPY stands at most 0.25; under MAMA, at most 0.25. Consider VMYP, for which the enrichment ratio was at most 0.25.

As to MHWE, the enrichment ratio is at most 0.25. For the variant QTDR, the enrichment ratio was at most 0.25. To ILIV belongs at most 0.25; to FHHS, at most 0.25. For the variant YEFV, the enrichment ratio is at most 0.25. With RVEC, the enrichment ratio was at most 0.25. To WCFK belongs at most 0.25; to KKKV, at most 0.25; to VYVY, 0.367. As for WTRV, the enrichment ratio was at most 0.25. For WWSP, the enrichment ratio was at most 0.25. As for VPHW, the enrichment ratio is at most 0.25.

For the variant IHFQ, the enrichment ratio is at most 0.25. As for PSFN, the enrichment ratio is at most 0.25. Under YMIC stands at most 0.25. As to MISS, the enrichment ratio is at most 0.25. PFQK: the enrichment ratio was at most 0.25.

As to EHKQ, the enrichment ratio is at most 0.25.

As for VKNC, the enrichment ratio was at most 0.25. To SPTE belongs at most 0.25; to VPEC, at most 0.25; to NQVM, at most 0.25. To PCCA belongs at most 0.25; to LNVN, at most 0.25; to RPNG, at most 0.25. To CFSH belongs at most 0.25; to TNSS, 13.1; to DYYL, at most 0.25. On to ILGD, for which the enrichment ratio was at most 0.25.

TLRQ: the enrichment ratio was at most 0.25. Under DSNY stands at most 0.25; under LLGL, at most 0.25. For the variant FNRW, the enrichment ratio was at most 0.25. For DSNP, the enrichment ratio was at most 0.25. To MEWA belongs 4.9. To HIQT belongs at most 0.25.

Consider SAGY, for which the enrichment ratio amounted to 3.16. Consider DLLG, for which the enrichment ratio was at most 0.25.

With QSTP, the enrichment ratio is at most 0.25. To CPSF belongs at most 0.25. Consider RWKS, for which the enrichment ratio is at most 0.25.

As for WMDR, the enrichment ratio was at most 0.25. For the variant WQTH, the enrichment ratio is at most 0.25. To YRDC belongs at most 0.25; to GGAC, at most 0.25. Turning to QTGD, the enrichment ratio is at most 0.25. For SCLG, the enrichment ratio is 12.6. For LTRT, the enrichment ratio was at most 0.25. To MMSF belongs at most 0.25; to FQYC, at most 0.25; to AHYK, at most 0.25. Under LYNL stands at most 0.25; under WFFL, at most 0.25; under KSPG, at most 0.25. TYNC: the enrichment ratio was found to be 2.52. Under PMLR stands at most 0.25. In the case of RARG, the enrichment ratio was at most 0.25.

Turning to WVKC, the enrichment ratio is at most 0.25.

As to ANRE, the enrichment ratio is at most 0.25. To MEHN belongs at most 0.25. Under HPAR stands at most 0.25; under IYPS, at most 0.25. For the variant DIYN, the enrichment ratio was at most 0.25. For EMTI, the enrichment ratio was at most 0.25. Under VAKM stands at most 0.25; under MSHA, at most 0.25; under HAGP, at most 0.25. Take GGTD: the enrichment ratio is at most 0.25. To ISGK belongs at most 0.25; to EYIR, at most 0.25; to YQAT, 0.465. As to CLAW, the enrichment ratio is at most 0.25. Under NKED stands at most 0.25; under PGVK, at most 0.25; under HNAA, at most 0.25. To SMAT belongs 7.92; to AMRE, at most 0.25. As for FNSI, the enrichment ratio was at most 0.25. Under VCIA stands at most 0.25; under LHDD, at most 0.25; under QEAY, 1.27.

Turning to NMML, the enrichment ratio was at most 0.25. To KEHT belongs at most 0.25. For RTVN, the enrichment ratio is at most 0.25.

Turning to PWER, the enrichment ratio is at most 0.25. Turning to YVMW, the enrichment ratio was at most 0.25. Under QYFP stands at most 0.25. Under ATMI stands 19.9; under TCYG, 4.33; under KGDV, at most 0.25. On to MKLN, for which the enrichment ratio was at most 0.25. Consider THLS, for which the enrichment ratio came out at 5.69. Turning to IPEF, the enrichment ratio is at most 0.25. To FTNA belongs at most 0.25; to MGEG, at most 0.25. In the case of GYFL, the enrichment ratio was at most 0.25.

As for LRFV, the enrichment ratio is at most 0.25. Under AYHK stands at most 0.25; under DWPV, at most 0.25.

In the case of LIKG, the enrichment ratio is at most 0.25. Take HFFQ: the enrichment ratio was at most 0.25.

Turning to NCWV, the enrichment ratio was at most 0.25. Regarding PPLY, the enrichment ratio is at most 0.25. Under ATLF stands 13.9; under DVLS, at most 0.25; under SWPT, at most 0.25. To MPRL belongs at most 0.25; to YTVC, at most 0.25; to ALAH, 3.82. Under DKLD stands at most 0.25; under WWTY, at most 0.25; under EISY, at most 0.25. Take SRKV: the enrichment ratio was at most 0.25. Take YLVS: the enrichment ratio was at most 0.25.

Take AMKG: the enrichment ratio is at most 0.25. In the case of YMSP, the enrichment ratio is at most 0.25. Under AEER stands at most 0.25; under TFMA, 7.14. To TNSE belongs 5.1; to VETP, at most 0.25.

Take YVGI: the enrichment ratio was at most 0.25. Under DFPW stands at most 0.25. To VHEL belongs at most 0.25; to TWEL, at most 0.25. Regarding IDVR, the enrichment ratio is at most 0.25.

With HKQV, the enrichment ratio is at most 0.25.

For ECPT, the enrichment ratio is at most 0.25. CFYL: the enrichment ratio was at most 0.25. Under EAPC stands at most 0.25; under QGDW, at most 0.25; under TAIH, at most 0.25.

As to ATCW, the enrichment ratio stood at 11.3. Consider VYDC, for which the enrichment ratio was at most 0.25. Take SPSF: the enrichment ratio is at most 0.25. To HKPP belongs at most 0.25; to LDDS, at most 0.25. To FMQY belongs at most 0.25; to PSTC, at most 0.25; to LQCA, at most 0.25. Under DHYK stands at most 0.25.

Consider VMGF, for which the enrichment ratio is at most 0.25. To MTTL belongs 9.8; to LLKI, at most 0.25. Under KWTT stands at most 0.25; under GHIC, at most 0.25; under LHTS, at most 0.25.

For the variant VLAD, the enrichment ratio was at most 0.25. Turning to KHKH, the enrichment ratio was at most 0.25. To RCSC belongs at most 0.25. To PNPH belongs at most 0.25; to NPFR, at most 0.25. Take QTHA: the enrichment ratio is at most 0.25. Regarding AETI, the enrichment ratio is 16.8. Consider HSNG, for which the enrichment ratio is at most 0.25. To KDIT belongs at most 0.25.

In the case of KCQF, the enrichment ratio was at most 0.25.
